From EPA's CvTdb concentration-time database
Further values from the same series stand in other lists.

Experiments:
Test in all cases: concentration in plasma after dosing
Rat [1] = conditions: dosed: Perfluorodecanoic acid, 20 mg/kg, oral, Female, Harlan Sprague Dawley
Rat [2] = conditions: dosed: Perfluorodecanoic acid, 10 mg/kg, oral, Female, Harlan Sprague Dawley
Rat [3] = conditions: dosed: Perfluorodecanoic acid, 20 mg/kg, oral, Female, Harlan Sprague Dawley; remark: listed apart in the source
Rat [4] = conditions: dosed: Perfluorodecanoic acid, 20 mg/kg, oral, Female, Harlan Sprague Dawley; remark: listed apart in the source
Rat [5] = conditions: dosed: Perfluorodecanoic acid, 20 mg/kg, oral, Male, Harlan Sprague Dawley
Rat [6] = conditions: dosed: Perfluorodecanoic acid, 20 mg/kg, oral, Female, Harlan Sprague Dawley; remark: listed apart in the source
Rat [7] = conditions: dosed: Perfluorodecanoic acid, 20 mg/kg, oral, Male, Harlan Sprague Dawley; remark: listed apart in the source
Rat [8] = conditions: 864 h; dosed: Perfluorooctane Sulfonate; 20 mg/kg; oral; Female; F344
Rat [9] = conditions: dosed: Perfluorooctane Sulfonate, 20 mg/kg, oral, Female, F344
Rat [10] = conditions: dosed: Perfluorooctane Sulfonate, 2 mg/kg, oral, Female, Harlan Sprague Dawley
Rat [11] = conditions: 3360 h; dosed: Perfluorooctane Sulfonate; 2 mg/kg; oral; Female; Harlan Sprague Dawley
Rat [12] = conditions: 864 h; dosed: Perfluorooctane Sulfonate; 20 mg/kg; oral; Male; Harlan Sprague Dawley
Rat [13] = conditions: dosed: Fluorotelomer alcohol 8+2, 48 mg/kg, oral, Male, Harlan Sprague Dawley
Rat [14] = conditions: 12 h; dosed: Fluorotelomer alcohol 8+2; 80 mg/kg; oral; Female; Harlan Sprague Dawley
Rat [15] = conditions: 3 h; dosed: Fluorotelomer alcohol 8+2; 160 mg/kg; oral; Female; Harlan Sprague Dawley
Rat [16] = conditions: dosed: Fluorotelomer alcohol 8+2, 40 mg/kg, oral, Female, Harlan Sprague Dawley
Rat [17] = conditions: dosed: Perfluorooctanoic acid, 320 mg/kg, oral, Female, Harlan Sprague Dawley
Rat [18] = conditions: dosed: Fluorotelomer alcohol 8+2, 160 mg/kg, oral, Female, Harlan Sprague Dawley
Rat [19] = conditions: dosed: Fluorotelomer alcohol 8+2, 160 mg/kg, oral, Female, Harlan Sprague Dawley; remark: listed apart in the source
Rat [20] = conditions: 1 h; dosed: Fluorotelomer alcohol 8+2; 24 mg/kg; oral; Male; Harlan Sprague Dawley
Rat [21] = conditions: 3 h; dosed: Perfluorooctanoic acid; 40 mg/kg; iv; Male; F344
Rat [22] = conditions: 6 h; dosed: Perfluorooctanoic acid; 80 mg/kg; oral; Female; Harlan Sprague Dawley
Rat [23] = conditions: 12 h; dosed: Perfluorooctanoic acid; 12 mg/kg; oral; Male; Harlan Sprague Dawley
Rat [24] = conditions: dosed: Perfluorooctanoic acid, 40 mg/kg, oral, Male, Harlan Sprague Dawley
Rat [25] = conditions: dosed: Fluorotelomer alcohol 8+2, 40 mg/kg, oral, Female, Harlan Sprague Dawley; remark: listed apart in the source
Rat [26] = conditions: 12 h; dosed: Perfluorooctanoic acid; 80 mg/kg; oral; Female; Harlan Sprague Dawley
Rat [27] = conditions: dosed: Perfluorooctanoic acid, 80 mg/kg, oral, Female, Harlan Sprague Dawley
Rat [28] = conditions: 3 h; dosed: Fluorotelomer alcohol 8+2; 80 mg/kg; oral; Female; Harlan Sprague Dawley
Rat [29] = conditions: 3 h; dosed: Fluorotelomer alcohol 8+2; 24 mg/kg; oral; Male; Harlan Sprague Dawley
Rat [30] = conditions: dosed: Perfluorooctanoic acid, 80 mg/kg, oral, Female, Harlan Sprague Dawley; remark: listed apart in the source
Rat [31] = conditions: 1200 h; dosed: Perfluorooctanoic acid; 12 mg/kg; oral; Male; Harlan Sprague Dawley
Rat [32] = conditions: 192 h; dosed: Fluorotelomer alcohol 8+2; 24 mg/kg; oral; Male; Harlan Sprague Dawley
Rat [33] = conditions: 192 h; dosed: Perfluorooctanoic acid; 12 mg/kg; oral; Male; Harlan Sprague Dawley
Rat [34] = conditions: dosed: Perfluorooctanoic acid, 40 mg/kg, oral, Male, Harlan Sprague Dawley; remark: listed apart in the source

O=C(O)C(F)(F)C(F)(F)C(F)(F)C(F)(F)C(F)(F)C(F)(F)C(F)(F)C(F)(F)C(F)(F)F [Perfluorodecanoic acid]
Conditions	concentration in plasma
Rat [1], 12 h	108 µg/mL
Rat [1], 1200 h	22.1 µg/mL
Rat [2], 6 h	47400 ng/mL
Rat [2], 1200 h	13100 ng/mL
Rat [2], 3360 h	3900 ng/mL
Rat [3], 12 h	116 µg/mL
Rat [3], 1200 h	28.7 µg/mL
Rat [4], 2 h	65200 ng/mL
Rat [4], 528 h	42200 ng/mL
Rat [4], 3360 h	3630 ng/mL
Rat [5], 2 h	56700 ng/mL
Rat [5], 528 h	26000 ng/mL
Rat [5], 3360 h	3160 ng/mL
Rat [6], 2 h	62800 ng/mL
Rat [6], 528 h	40600 ng/mL
Rat [6], 3360 h	8000 ng/mL
Rat [7], 1 h	33300 ng/mL
Rat [7], 192 h	46300 ng/mL
Rat [7], 2520 h	6310 ng/mL

O=S(=O)([O-])C(F)(F)C(F)(F)C(F)(F)C(F)(F)C(F)(F)C(F)(F)C(F)(F)C(F)(F)F [Perfluorooctane Sulfonate]
Conditions	concentration in plasma [ng/mL]
Rat [8]	33800
Rat [11]	728
Rat [12]	28300

concentration in plasma [ng/mL]
Conditions	1 h	5 min	192 h	528 h	1200 h	2520 h
Rat [9]	–	714	66400	–	25200	–
Rat [10]	3330	–	–	2240	–	373

O=C(O)C(F)(F)C(F)(F)C(F)(F)C(F)(F)C(F)(F)C(F)(F)C(F)(F)F [Perfluorooctanoic acid]
Conditions	concentration in plasma
Rat [13], 1 h	440 ng/mL
Rat [13], 24 h	1410 ng/mL
Rat [16], 0.5 h	255 ng/mL
Rat [16], 9 h	745 ng/mL
Rat [17], 1 h	445 µg/mL
Rat [17], 12 h	198 µg/mL
Rat [18], 0.25 h	68.5 ng/mL
Rat [18], 6 h	3020 ng/mL
Rat [19], 1 h	1830 ng/mL
Rat [19], 24 h	603 ng/mL
Rat [24], 0.25 h	63.9 µg/mL
Rat [24], 9 h	171 µg/mL
Rat [24], 96 h	0.049 µg/mL
Rat [25], 0.75 h	448 ng/mL
Rat [25], 12 h	995 ng/mL
Rat [27], 0.25 h	102 µg/mL
Rat [27], 9 h	268 µg/mL
Rat [30], 0.25 h	154 µg/mL
Rat [30], 9 h	293 µg/mL
Rat [34], 0.25 h	66.5 µg/mL
Rat [34], 9 h	60.4 µg/mL
Rat [34], 96 h	0.0454 µg/mL

Conditions	concentration in plasma
Rat [14]	409 ng/mL
Rat [15]	5460 ng/mL
Rat [20]	620 ng/mL
Rat [21]	76.4 µg/mL
Rat [22]	210 µg/mL
Rat [23]	83 µg/mL
Rat [26]	75.7 µg/mL
Rat [28]	3220 ng/mL
Rat [29]	698 ng/mL
Rat [31]	1640 ng/mL
Rat [32]	591 ng/mL
Rat [33]	43700 ng/mL
